Source: PubChem BioAssay AID1508623 (National Center for Advancing Translational Sciences (NCATS), 2021)
Among all 48,000 compounds or so, about 450 (0.94%) were called active. Inconclusive results (about 19%) are left out. Calls come from the whole dose curve; as a rule, active = well fitted inhibition curve with a large enough effect; inconclusive = small, poorly fitted or top-dose-only effect; inactive = no such curve, though single readings can be large or run the other way. The list shows a part of the results.

experiment: Primary qHTS for Identification of Small Molecule Inhibitors of Huntingtin Promoter Activity; conditions: HEK293 HTT promoter firefly luciferase reporter (activity 0% = vehicle and -100% = no light), 24 h; series mostly up to 57.5 µM; activity change, negative = inhibition: at the top concentration; note: nearly all actives have a fitted effect of over 50% in size
Method in brief: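 Firefly luciferase signal from promoter-reporter HEK293 cells was scaled between vehicle (0%) and zero RLU (-100%). Compounds were tested at final concentrations of up to 57.5 uM over 24 h at 37 degrees C. PTC124 at 50 uM final served as control inhibitor.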
Potency is the fitted concentration of half-maximal effect.

Activity change, negative = inhibition, inactive:
CCOC(=O)c1ccc(NC(=O)Cn2nnc(-c3ccc(C(F)(F)F)cc3)n2)cc1 -8.34%
COc1ccc2c(c1)c(N1CCCC1=O)c(C(=O)Nc1ccc(Cl)cc1C)n2C -29.7%
CCN1Cc2cccc(C(=O)Nc3ccc(F)cc3)c2C1=O -10%
CCOC(=O)c1ccc(OCC2c3cc(OC)c(OC)cc3CCN2C(=O)Cc2ccc(OC)c(OC)c2)cc1 (centres undefined) -15.5%
C[C@@H]1C[C@H]2[C@@H]3CCC4=CC(=O)C=C[C@]4(C)[C@@]3(F)[C@@H](O)C[C@]2(C)[C@@]1(O)C(=O)COC(=O)c1ccncc1 -3.53%
COc1ccc(CCNC(=O)CCCn2c(=O)c3ccccc3n(CC(=O)Nc3c(C)cc(C)cc3C)c2=O)cc1OC -6.35%
CCOC(=O)c1c(-c2ccc(C)cc2)csc1NC(=O)c1ccc(C(C)(C)C)cc1 -9.13%
CCc1ccc(NC(=O)CCS(=O)(=O)c2ccc3c(c2)oc(=O)n3C)cc1 -6.65%
COC(=O)c1ccc(OC)c(Cn2c(=O)n(-c3cccc(Cl)c3)c(=O)c3c2c2cc(C)ccc2n3C)c1 -8.41%
Cc1ccc(-n2c(SCc3nc(-c4ccccc4C)no3)nnc2-c2ccncc2)cc1C -27.8%
Cc1ccc(-n2ncc(C(=O)N3CCc4ccccc4C3)c2C2CCN(C(=O)OC(C)(C)C)CC2)cc1C -4.14%
COc1ccccc1-c1noc(-c2ccc(NCCc3ccccc3)c([N+](=O)[O-])c2)n1 3.07%
CCn1cc(C(=O)NCCc2ccc(OC)c(OC)c2)c(=O)c2cc(S(=O)(=O)N3CCc4ccccc4C3)ccc21 4.61%
COc1cccc(CNC(=O)CSc2ncc(S(=O)(=O)c3ccc(C)c(Cl)c3)c(=O)[nH]2)c1 -15%
COc1ccc(-c2nc(CN3CCC(C(=O)NCCN(CC(C)C)CC(C)C)CC3)c(C)o2)cc1OC -19.2%
CC(C)(C)C(=O)OCc1cc(=O)n2nc(C3CCCCC3)sc2n1 10.2%
COC(=O)c1ccccc1NC(=O)CN1C(=O)COc2ccccc21 -0.696%
Cc1ncc(CO)c2c1Oc1nc(-c3ccccc3F)nc(SCC(=O)N3CCCCC3)c1C2 -6.93%
COc1ccc(NC(=O)CSc2nc3c(c(=O)[nH]2)CN(Cc2ccccc2)CC3)cc1Cl -22.8%
CCc1ccc(NC(=O)Cn2c(=O)n(Cc3ccccc3)c(=O)c3oc4ccccc4c32)cc1 -2.41%
COc1cccc2cc(-c3nc(Cl)c4c5c(sc4n3)CC(C)CC5)c(=O)oc12 (centres undefined) -10.3%
Cc1ccc(S(=O)(=O)c2cn(C)c3cc(N4CCCC4)c(F)cc3c2=O)c(C)c1 -16.4%
CCOc1cc(C(=O)Nc2c(NC)c3ccccc3oc2=O)cc(OCC)c1OCC 19.8%
CCc1ccc(NC(=O)c2cnn(-c3c(C)cccc3C)c2C2CCNCC2)cc1 0.0757%
O=C1CN(C(=O)c2ccccc2)C(c2ccc(F)cc2)c2cc(Br)ccc2N1 (centres undefined) -26.9%
Cc1ccc(C)c(NC(=O)CSc2nncn3c2cc2sccc23)c1 4.14%
CCOCCCNC(=O)c1c(NC(=O)c2cc(=O)c3cc(C)c(C)cc3o2)sc2c1CCC2 -14.8%
CCOc1ccc(N2CC(c3nc4ccccc4n3CCC3CCCCC3)CC2=O)cc1 (centres undefined) -16.3%
COc1ccc(CN2C(=O)N(c3ccc(F)cc3)C(=O)C2CC(=O)Nc2ccccc2)cc1 (centres undefined) -25.8%
CCCNC(=O)C1CCN(c2cc(C)nc3c(-c4ccc(OC)c(OC)c4)c(C)nn23)CC1 21%
Cc1ccc(CCNc2nc3ccccc3c3nc(-c4ccccc4)nn23)cc1 9.88%
O=C1N=C(O)CN1/N=C/c1ccc(-c2ccc([N+](=O)[O-])cc2)o1 0.905%
Cc1oc(-c2ccc(Cl)cc2)nc1CSc1nnc(C)n2c1cc1sccc12 -0.504%
O=C(NCCc1c[nH]c2ccccc12)Nc1ccccc1C(F)(F)F -14.5%
COC(=O)c1cc(NC(=O)Cn2ncc3c2-c2ccccc2OC3)cc(C(=O)OC)c1 -17.8%
COc1ccc(-c2noc(-c3ccc(NC4CCCCC4)c([N+](=O)[O-])c3)n2)cc1OC -8.09%
CCCn1c2ccccc2c2cnn(CC(=O)N(CCCOC(C)C)Cc3ccco3)c(=O)c21 -24.4%
COc1cc(C(=O)Nc2ccc(OCc3cc(=O)n4ccc(C)cc4n3)cc2)cc(OC)c1OC 4.47%
Cc1ccc(-n2c(=O)c3c(C)c(C)sc3n(CC(=O)c3ccc(Cl)cc3)c2=O)cc1C -21.3%
N#Cc1ccccc1CSc1nnc(-c2ccccc2)o1 33.4%
O=C(Cn1c(=O)n(Cc2ccc(F)cc2)c(=O)c2sc3ccccc3c21)NCc1ccccc1Cl -8.29%
Cc1ccn2c(Nc3ccc4c(c3)OCO4)c(-c3ccco3)nc2c1 54.1%
Cc1cccc(N2CCN(S(=O)(=O)c3c(C)[nH]c(=O)[nH]c3=O)CC2)c1C -16.6%
CCc1cccc(NC(=O)c2nc(-c3ccncc3)no2)c1 -11.7%
COc1ccc(C2=NN(CC(=O)NCc3ccccc3Cl)C(=O)CC2)cc1 5.84%
Cc1ccc(CCNC(=O)c2c(C)oc3ncnc(N4CCOCC4)c23)cc1 -10.1%
COc1cccc(CNC(=O)N2CCC(CN3CCC(C)CC3)CC2)c1 -2.35%
COc1cc2cc(CNc3ccc(C)cc3)c(=O)n(CC(=O)Nc3ccc(C(C)C)cc3)c2cc1OC -16.4%
COc1ccc(NC(=O)CSc2nc(-c3ccc(OC)cc3)[nH]c2-c2ccc(F)cc2)cc1 -29.8%
COc1ccccc1NC(=O)c1ccccc1NC(=O)c1ccccc1 -25.8%
CN(C)c1ccc(CNC(=O)CCC(=O)N2Cc3ccccc3Oc3ncccc32)cc1 -6.1%
Cc1ccc(CN(C(=O)COc2ccc(C(C)(C)C)cc2)C2CCS(=O)(=O)C2)o1 (centres undefined) -23.9%
COc1ccc(-c2c3c(nc4sc(C(=O)Nc5ccc(Cl)cc5)c(N)c24)CC(C)(C)CC3=O)cc1 -18.8%
COCCc1nn2c(=O)cc(COC(=O)c3cccs3)nc2s1 47.3%
Cn1nnc2c(N3CCCCC3)ncnc21 10%
CCn1ccc2cc(S(=O)(=O)N3CCC(C(=O)NCCc4ccc(SC)cc4)CC3)ccc21 0%
CCc1cccc(C)c1NC(=O)CN1C(=O)c2c(c3ccccc3n2C)C1c1ccc(OC)cc1 (centres undefined) -27.1%
CCCCN(C)C(=O)CN1C(=O)CCn2nc(-c3cn(C)c4ccccc34)cc21 -13.6%
COc1cccc(CCNC(=O)c2c(O)nc3cc(C)ccn3c2=O)c1 -0.777%
CCc1ccccc1NC(=O)C(NS(=O)(=O)c1ccc2c(c1)CCC(=O)N2)c1ccccc1 (centres undefined) -10%
COCCCNC(=O)Nc1cc(C(=O)NCc2ccc(OC)cc2)ccc1N1CCCC1 2.61%
COC(=O)c1ccccc1NC(=O)c1ccc2c(c1)CCN2S(=O)(=O)c1ccc(C)cc1 -7.52%
O=c1cc(-c2ccccc2)n2c(SCc3ccc([N+](=O)[O-])cc3)nnc2[nH]1 8.5%
CC1=C(C(N)=O)C(c2cccc(F)c2)n2nc(SCc3ccccc3)nc2N1 (centres undefined) -3.16%
O=C(O)Cn1nc(N2CCN(c3ccc(F)cc3)CC2)ccc1=O -2.41%
COc1cc(OC)c(NC(=O)C2=C(C)C(=O)OC23CCCCC3)cc1Cl -16.3%
CCc1ccc(C(=O)c2cnc3ccc(C)cc3c2S(=O)(=O)c2ccc(OC)cc2)cc1 -43.5%
COc1ccc2cc(CNc3ccc(C)cc3)c(=O)n(CC(=O)Nc3ccc(OC)c(Cl)c3)c2c1 -28%
O=C(CCCn1c(=O)c2sccc2n(Cc2ccc(F)cc2Cl)c1=O)NCc1ccc2c(c1)OCO2 -0.658%
NC(=Nc1ccccc1)Nc1ccccc1
Cc1c(C(=O)N2CCCC2)oc2c1-c1nn(CC(=O)NCc3cccc(F)c3)cc1CC2 -20.1%
Cc1ccccc1Nc1ncnc2c1c(-c1ccccc1)cn2-c1ccc(F)cc1 -24%
O=C(CCc1nc2cccnc2n1Cc1ccccc1)NCc1cccc(Cl)c1 -16.9%
Cc1ncc(COC(=O)C(C)C)c2cc(C(=O)Nc3ccccc3C(F)(F)F)c(=O)oc12 -2.6%
CCN(CC)CCCNC(=O)CCc1c(C)n(CC)c2cc(-c3ccccc3OC)nn2c1=O -9.05%
CCCCn1c(CNC(=O)C23CC4CC(CC(C4)C2)C3)nnc1SCC(=O)Nc1ccccc1 0.682%
COC(=O)NNC(=O)C1CCC(C)CC1 (centres undefined) -17.9%
Cc1cccc(N2C(=O)CS(=O)(=O)C23C(=O)N(C)c2ccccc23)c1 (centres undefined) -16.6%
CCc1nc2ccc(C(=O)NCCc3ccc(OC)c(OC)c3)cc2nc1CC 2.52%
O=C(c1ccco1)N1CCN(c2nc3ccc(Cl)cc3s2)CC1 -23%
CCn1ccc2cc(S(=O)(=O)N3CCC(C(=O)NCCOC)CC3)ccc21 -3.33%
CCN1CCN(CCCNC(=O)c2cc3c(s2)-c2c(C)cccc2OC3)CC1 -21.4%
O=S(=O)(c1ccc(-c2cc(C(F)(F)F)on2)s1)N1CCN(c2cccc(Cl)c2)CC1 -3.17%
CCCOC(=O)c1ccc(N)cc1 5.95%
Cc1nn2c(C(F)(F)F)cc(-c3ccc(OC(C)C)cc3)nc2c1C#N -7.54%
Cc1ccc2c(c1)c1c(n2CCc2ccc(C)nc2)CCN(C)C1 6.44%
COCCn1c(C)cc(O)c(C(c2ccccc2OC)N2CCCCC2)c1=O (centres undefined) -16.8%
COc1ccc(C(CC(=O)Nc2ccc(OC)c(OC)c2)N2Cc3ccccc3C2=O)cc1 (centres undefined) -18.5%
O=C(Nc1cccc(C2=NCCN2)c1)Nc1cccc(C2=NCCN2)c1 -3.17% [at 25.2 µM]
COc1cccc(CNC(=O)c2cc3c(=O)n(C)c4ccccc4c3n2C)c1 3.22%
CC(=O)OCC(=O)[C@@]1(O)CC[C@H]2[C@@H]3CCC4=CC(=O)C=C[C@]4(C)[C@H]3[C@@H](O)C[C@@]21C -11.8%
Cc1ccc2c(CC(=O)Nc3c(C(=O)Nc4cccc(Cl)c4)oc4ccccc34)coc2c1C -3.75%
Cc1ccccc1Cn1c(Oc2ccccc2F)nc2c1c(=O)n(C)c(=O)n2C 8.46%

Potency, active:
Cc1ccccc1OCC(=O)Nc1ccccc1C(=O)OCc1cc(=O)n2c(C)csc2n1 2240 nM
